In all, about 310,000 compounds went through this assay and about 14,000 (4.5%) showed an effect of 50% or more. Effects have a minus sign here. Some of the results follow.
molecular target: human ether-à-go-go-related gene (hERG) potassium channel (human, UniProt Q12809); assay: primary screen, population patch clamp on CHO cells stably expressing hERG
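Note: peak tail current of the secondary pulse compared with the same well before compound.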

Sequence of human ether-à-go-go-related gene (hERG) potassium channel (Q12809 whole entry, looked up): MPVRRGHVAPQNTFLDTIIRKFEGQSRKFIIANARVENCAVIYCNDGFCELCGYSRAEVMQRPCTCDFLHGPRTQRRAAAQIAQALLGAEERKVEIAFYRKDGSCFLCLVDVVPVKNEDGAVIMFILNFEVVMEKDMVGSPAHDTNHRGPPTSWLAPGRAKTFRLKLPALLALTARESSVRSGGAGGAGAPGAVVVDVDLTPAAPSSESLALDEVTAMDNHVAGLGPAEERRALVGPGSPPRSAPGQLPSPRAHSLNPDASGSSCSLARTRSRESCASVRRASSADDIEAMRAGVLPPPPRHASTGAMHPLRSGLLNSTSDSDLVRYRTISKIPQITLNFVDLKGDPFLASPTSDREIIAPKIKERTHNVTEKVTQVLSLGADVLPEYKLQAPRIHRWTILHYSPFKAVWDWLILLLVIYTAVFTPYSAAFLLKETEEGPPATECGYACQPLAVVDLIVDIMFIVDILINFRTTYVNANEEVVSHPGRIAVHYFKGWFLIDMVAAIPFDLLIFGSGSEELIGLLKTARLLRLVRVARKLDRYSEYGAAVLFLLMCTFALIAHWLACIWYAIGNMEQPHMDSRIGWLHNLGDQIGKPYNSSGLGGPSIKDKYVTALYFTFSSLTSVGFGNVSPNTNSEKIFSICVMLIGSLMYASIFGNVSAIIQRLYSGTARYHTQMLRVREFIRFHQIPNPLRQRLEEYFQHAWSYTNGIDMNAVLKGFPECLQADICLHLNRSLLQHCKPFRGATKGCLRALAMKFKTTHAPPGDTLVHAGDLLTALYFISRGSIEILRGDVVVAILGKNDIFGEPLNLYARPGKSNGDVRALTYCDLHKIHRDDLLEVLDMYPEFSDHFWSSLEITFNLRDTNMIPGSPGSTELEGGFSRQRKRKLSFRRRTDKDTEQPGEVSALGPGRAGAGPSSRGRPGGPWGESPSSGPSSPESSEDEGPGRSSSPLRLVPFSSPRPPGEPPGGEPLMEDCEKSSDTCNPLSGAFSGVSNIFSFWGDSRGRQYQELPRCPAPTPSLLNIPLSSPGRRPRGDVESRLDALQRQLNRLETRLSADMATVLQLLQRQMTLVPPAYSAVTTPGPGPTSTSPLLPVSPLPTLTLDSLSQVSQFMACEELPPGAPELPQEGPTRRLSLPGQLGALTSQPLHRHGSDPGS

Structure (SMILES) | hERG current change (%, negative = inhibition) at 10uM [%]
N#Cc1ccc(S(=O)(=O)N2CCN(c3ncccn3)CC2)cc1 | -17.9
CCCc1nc(NCc2ccccc2)c(C#N)c2c1CCCC2 | 10
CCOc1ccc(OCC)c(-c2c(=O)n(OCc3ccccc3Br)c3ccccc3[n+]2[O-])c1 | 1.92
COc1ccc(OC)c(NC(=O)c2cccc(S(=O)(=O)N(Cc3ccccc3)c3ccccc3OC)c2)c1 | 3.52
CN(C)C(CNC(=O)C1CCN(S(=O)(=O)c2ccccc2)CC1)c1ccccc1 (centres unmarked) | -1.15
Cc1cc(CSc2ccccc2)ccc1NC(=O)c1ccc(Cl)c([N+](=O)[O-])c1 | 6.91
CCCN(CC(=O)Nc1ccccc1OC)C(=O)c1ccc(COc2ccccc2)o1 | -26.5
O=C(NCc1ccco1)Nc1ccccc1Cl | -5.31
COc1ccccc1N1CCN(c2cc(=O)n(-c3ccc(Cl)cc3)c(=O)[nH]2)CC1 | 19.8
CCC(=O)N1CCC2(CC1)Oc1ccc(Cl)cc1C(=O)C21CC(c2cccnc2)=NO1 (centres unmarked) | -15.1
CCN(CC)S(=O)(=O)c1ccc(NC(=O)COC(=O)CNS(=O)(=O)/C=C/c2ccccc2)cc1 | -30
Cc1ccc(S(=O)(=O)N2CCN(C(=O)COC(=O)CCc3ccccc3)CC2)c(C)c1 | -8.38
CCC1CCCCN1CC(=O)c1c(C)[nH]c2cc(C)ccc12 (centres unmarked) | -27.7
O=C(O)C1C2CCC(O2)C1C(=O)Nc1cccc(Cl)c1 (centres unmarked) | -2.22
COc1ccccc1C(=O)N/N=C/c1c[nH]c2ccccc12 | 1.12
Cc1cc(C)cc(OCc2nnc(SCC(=O)Nc3ccccc3)o2)c1 | -6.76
COc1ccccc1NC(=O)CSc1nnc(-c2ccc(NC(C)=O)cc2)n1C | 8.64
O=C(COC(=O)c1cc([N+](=O)[O-])ccc1N1CCOCC1)Nc1ccc(Cl)cn1 | -61.5
N/C(=N\OC(=O)CCC1CCCC1)c1ccccn1 | -17.1
COc1ccc(/C=N/NC(=O)COc2cc(C)cc(C)c2)cc1COC(C)=O | -0.00242
Cc1cccc(C(=O)N2CCC(c3nc4ccccc4s3)CC2)c1 | -33.7
CCOC(=O)c1sc2nc(C)n(CC(=O)NCC3CCCO3)c(=O)c2c1C (centres unmarked) | 0.179

Structure (SMILES) | hERG current change (%, negative = inhibition) at 10uM [%]
CN1CCN(C(=O)c2ccc3c(c2)N(C)C(=O)/C(=C/c2cccc(Cl)c2)S3)CC1 | -55.1
O=C(COC(=O)CCS(=O)(=O)c1ccc(Cl)cc1)NC1CCCCC1 | -4.25
Nc1nnc(SCc2nc3scc(-c4ccccc4)c3c(=O)[nH]2)s1 | 6.26
CCN1CCN(C(CNS(=O)(=O)c2ccc(Cl)cc2)c2ccccc2)CC1 (centres unmarked) | -69.5
c1ccc2c(NC3C4CC5CC(C4)CC3C5)nc(N3CCOCC3)nc2c1 (centres unmarked) | -35.1
Cc1ccc(C(=O)N2CCN(c3ccccn3)CC2)cc1Cl | -3.65
CN(C)c1ccc(NC(=O)c2cccc(C(=O)Nc3ccc(N(C)C)cc3)n2)cc1 | -10.4
CNc1nc2c3ccccc3n(C(C)=O)c2s1 | 4.94
CC1CCC2(CC1)NC(CO)(CO)CO2 (centres unmarked) | 7.16
CCc1ccc(NC(=O)COC(=O)/C=C/c2c(C)nn(C3CCS(=O)(=O)C3)c2Cl)cc1 (centres unmarked) | 1.41
COc1ccccc1CNC(=O)C(=O)NCC1OCCN1C(=O)c1cccs1 (centres unmarked) | 3.96
Cc1ccc(OCC(=O)N2CCCC(CCC(=O)N(C)CCc3ccccn3)C2)cc1 (centres unmarked) | -9.48
O=C(NN1C(=O)NC2(CCCCC2)C1=O)c1ccc(Cl)c(Cl)c1 | -46.2
COc1ccc(C2c3c(oc4ccccc4c3=O)C(=O)N2c2ccc(C)cn2)cc1OC (centres unmarked) | -17.5
CN1CCN(CCC(=O)Nc2cccc(F)c2)CC1 | -1.22
COC(=O)c1ccc(COC(=O)Cc2n[nH]c(=O)c3ccccc23)cc1 | -1.24
O=c1[nH]c(SCc2cccc(Cl)c2)nc2[nH]ncc12 | 12.6
O=C1c2ccccc2C(Nc2ccc3c(c2)OCCO3)N1Cc1ccc2c(c1)OCO2 (centres unmarked) | -11.3
Nc1nc(Sc2c([N+](=O)[O-])cc(C(F)(F)F)cc2[N+](=O)[O-])n[nH]1 | 3.04
OCCCC1CCCCN1Cc1nc(Cc2ccccc2Cl)no1 (centres unmarked) | -78.9
Cc1cc(C)cc(OCC(=O)N(Cc2ccco2)c2c(N)n(Cc3ccccc3)c(=O)[nH]c2=O)c1 | -5.98
COc1ccc(N2C(=O)C3ON(C4SC(=S)N(C)C4(C)C)C(c4ccc(Cl)cc4)C3C2=O)cc1 (centres unmarked) | 0.115

Structure (SMILES) | hERG current change (%, negative = inhibition) at 10uM [%]
CC1(C)CC2CC(C)(CN2/C=N/c2sc3c(c2C#N)CC(C)(C)NC3(C)C)C1 (centres unmarked) | -20.9
O=[N+]([O-])c1ccc(S(=O)(=O)N/N=C/c2cccs2)cc1 | 14.9
c1ccc(Oc2nc3ccccc3n3cccc23)cc1 | 3.96
O=C(O)COCC(=O)Nc1ccc2c(c1)ncn2CCc1ccccc1 | 15.4
CCn1c(C)[n+](CC)c2ccc(S(=O)(=O)NC)cc21.[I-] | 19.5
Cc1cccc(C)c1NC(=O)C(=O)NCCOc1ccc(Cl)cc1 | -26
COc1c(C)cc(C(=O)C2CCCN(C(=O)c3cc4nc(C)cc(C)n4n3)C2)cc1C (centres unmarked) | -30.8
COCCn1c(C)cc(C(=O)CSc2cc(C)c3ccc(OC)cc3n2)c1C | 7.43
COc1cc(SC)ccc1C(=O)NC1CCCCC1 | -10.4
COc1ccc(OC)c(-c2cnc(OC(C)(C)C)nc2OC(C)(C)C)c1 | 32.5
Cc1ccc(C(=O)NCCC(=O)N2CCCC2)cc1 | 9.95
CCOC(=O)C1(Cc2ccccc2C(F)(F)F)CCN(Cc2ccon2)CC1 | -2.88
Cn1nc(C(F)(F)F)c(-c2ccc(Br)cc2)c1NC(=O)c1ccco1 | -63.5
COCC(C)NC(=O)COc1nncc2ccccc12 (centres unmarked) | 5.65
COC(=O)Cc1cc(=O)[nH]c(/N=C(\N)Nc2ccc(C)cc2)n1 | 2.56
Cc1ccc(C)c(N2CCN(C(=O)Cc3c(C(=O)O)[nH]c4ccc(Cl)cc34)CC2)c1 | 10.1
COc1ccc(OC)c(NCc2nnc(-c3ccccc3)o2)c1 | 13.9
COC(=O)Cn1c(=O)c2c(nc3n2CC(C)CN3c2ccc(C)c(C)c2)n(C)c1=O (centres unmarked) | -8.82
CCN1CCN(c2ccc(N)c(C)c2)CC1 | 2.36
CCOC(=O)c1cc(C#N)c(N)nc1C | -3.66
CCCN1CCN(CCCNC(=O)CN2C(=O)c3cccnc3Oc3ccc(Cl)cc32)CC1 | 0.74
C/C(=N\NC(=O)c1cccc(S(=O)(=O)N2CCCC2)c1)c1ccco1 | 14.1

Structure (SMILES) | hERG current change (%, negative = inhibition) at 10uM [%]
c1ccc(-c2nc(C3CCCCC3)c3ccccc3n2)cc1 | 10.7
CCCN1CCN(S(=O)(=O)c2ccc3c(c2)CCC(=O)N3)CC1 | -11.2
CCNc1nc(OC)nc(N(OC)S(=O)(=O)c2ccc(C)cc2)n1 | 0.0662
CC(=O)N1CC=CC1(C)C(=O)NCc1cc(F)cc(C(F)(F)F)c1 (centres unmarked) | 9.74
O=C(NCC1CCCO1)c1nnc(Cc2ccc(F)cc2)o1 (centres unmarked) | 10.4
COc1ccc(-n2nnnc2CNC(=O)c2ccc3ccccc3c2)cc1 | -45.3
CCOC(=O)N1CCC(N2CCN(S(=O)(=O)c3ccc(Cl)cc3)CC2)CC1.O=C(O)C(=O)O | -45.7
COc1ccc([N+](=O)[O-])cc1NC(=O)C(C)OC(=O)c1ccccn1 (centres unmarked) | -7.61
COc1ccccc1/C=C/C=N/Nc1cccc(C(=O)O)c1 | 16.7
NC(=O)NC(=O)COC(=O)c1ccccc1OCc1ccc(F)cc1 | 5.58
O=C1c2c(O)cc(O)cc2O[C@H](c2ccc(O)c(O)c2)[C@H]1O | 1.86
CC(C)CC1(C(=O)NCCc2c[nH]c3ccccc23)C=CCN1C(=O)c1ccccc1 (centres unmarked) | 0.564
O=C1CCc2cc(S(=O)(=O)NC3CCCCC3)cc3c2N1CC3 | 1.44
COc1ccccc1-c1nnc(NC(=O)CCS(=O)(=O)c2ccccc2)o1 | 5.3
Cc1cc(C)cc(OC(=O)CS(=O)c2ccc(C(F)(F)F)cc2[N+](=O)[O-])c1 (centres unmarked) | -2.9
CC1CCN(C(=S)NC2CCCCC2)CC1 | -9.81
Cc1ccccc1Nc1ccc2nonc2c1[N+](=O)[O-] | 10.7
CC(=O)Nc1ccc(S(=O)(=O)NCCS(=O)(=O)N2CCN(c3ccccc3F)CC2)cc1 | 10.2
CCC(CC)NCC(O)COc1ccc(Br)cc1.O=C(O)C(=O)O (centres unmarked) | -30.5
O=S(=O)(NC(=NC1CCCC1)C(F)(F)F)c1ccccc1 | 2.25
